Results published in the supplement of paper PMC3334620.
The full ranking holds about 33,000 sequences; the median of “E-score (-0.5 to 0.5)” is about -0.056, and the highest 2% start at about 0.38. Some of the results follow.

Biological target: Stb4 (UniProt P50104)
Experiment: PBM E-score (8-mer binding enrichment) (E-score (-0.5 to 0.5)); higher = stronger / more preferred TF binding; most listed sequences are background and not binding sites
Details: protein concentration: 200 nM; construct: GST-DNA-binding domain
In short: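 GST-tagged yeast TFs (full-length or DNA-binding domain) were made by PURExpress in vitro transcription/translation and applied at about 100-200 nM to universal all-10-mer Agilent arrays. The arrays were made double-stranded by primer extension, on fresh or once-stripped slides. Bound protein was detected with fluorescent anti-GST, and scans were normalised with masliner. Each ungapped eight-base word, pooled with its reverse complement, received an E-score (modified Wilcoxon-Mann-Whitney statistic) from the Universal PBM Analysis Suite.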

| Sequence | PBM E-score |
| --- | --- |
| AGCAGGGC | -0.167 |
| ACGATCTG | -0.128 |
| CGCCCTGA | -0.185 |
| CTGGTATC | -0.15 |
| GCATGAAA | -0.101 |
| GATCGGTA | 0.407 |
| AAGACATT | -0.0502 |
| AAACTCTT | -0.211 |
| CTAGTGCC | 0.0204 |
| GACAAGGA | -0.179 |
| CCTTGGAA | -0.0789 |
| GTGGCGGA | 0.137 |
| AGGATACA | -0.261 |
| AATCCGTC | 0.225 |
| GAACGGGA | 0.282 |
| ACCCAAGC | -0.152 |
| CGAAGAAG | 0.0957 |
| AGAAATCC | 0.114 |
| AGGGATTA | -0.244 |
| CCTGAGCA | -0.19 |
| ACTACCAC | -0.121 |
| AGTCTCAA | 0.0271 |
| GAGTGGCA | 0.0169 |
| ACTACCTG | 0.0335 |
| GTACACAC | -0.0518 |

| Sequence | PBM E-score |
| --- | --- |
| ACAAGGCA | -0.173 |
| CAGCCACG | -0.0108 |
| TGACTAAA | -0.201 |
| CTTGATGA | 0.102 |
| CTAAATAC | -0.0567 |
| TGGGCCCA | -0.105 |
| TAACCAAA | -0.057 |
| AAAAGGCT | -0.0374 |
| CCGACATA | 0.252 |
| ACTAGGTA | -0.202 |
| ACCGTCGA | -0.182 |
| ATTGAGAA | -0.0694 |
| GGCGTAAA | 0.1 |
| CGTCGAAG | -0.0867 |
| ACCTGTCG | 0.0699 |
| AGTGGTAA | -0.138 |
| CGTCCATC | 0.228 |
| CGAAGATC | 0.101 |
| AGGCTAAG | -0.199 |
| CGATTACC | 0.177 |
| CTTCGCTA | -0.109 |
| AGACAAAT | -0.166 |
| TCAGAGAA | -0.281 |
| CATATAAG | -0.0888 |
| ACCGTATC | 0.182 |

| Sequence | PBM E-score |
| --- | --- |
| ACCTCACG | -0.061 |
| GGTATCGA | -0.0245 |
| CTAATGCC | -0.0126 |
| AGAGGATG | -0.0042 |
| AACACAGG | -0.0876 |
| CGTGAACC | -0.079 |
| CTTCGGTA | 0.383 |
| AGTTCGAA | 0.00309 |
| CACTGACC | 0.0448 |
| GTAACAAA | 0.0122 |
| CTCTCAAC | -0.219 |
| GCCTCTTA | -0.201 |
| GCTGTGCC | 0.184 |
| CCAATAAG | -0.224 |
| GAGCTACC | -0.0823 |
| GAGAAGCC | 0.0273 |
| TGCCCGAA | 0.161 |
| GTATCCGA | 0.487 |
| GAAGTCGC | 0.00355 |
| CCACGGAA | 0.354 |
| ACGCCTTA | -0.0552 |
| CTTCATAA | -0.0934 |
| AATACCGC | 0.146 |
| CCACTAGG | -0.366 |
| CATTGACC | -0.106 |

| Sequence | PBM E-score |
| --- | --- |
| ACTTCCAT | 0.0787 |
| GGGTCCTA | -0.0879 |
| GGTCGCAC | -0.0458 |
| CGACAACA | 0.0716 |
| ATTTTCCA | -0.0573 |
| TGATATAA | -0.0748 |
| ATCCCCTG | -0.257 |
| ACTGCTTG | -0.0295 |
| ACTACAGA | 0.0725 |
| CGTCAGTA | -0.16 |
| AAAACGAG | -0.262 |
| CCGGCGAG | 0.173 |
| GAGGGAGC | -0.0555 |
| AGGTTTAA | -0.0812 |
| AGACTATC | -0.197 |
| ATTCAGTG | 0.185 |
| TAGGGAGA | -0.141 |
| AGGCGTGC | -0.0495 |
| AGCGCACG | 0.0198 |
| ACAGTAGG | -0.105 |
| GTCATCAC | -0.218 |
| GCCTCTCC | -0.182 |
| AATATTAG | -0.31 |
| ATCGCGCA | -0.247 |
| GAACACAA | -0.217 |

| Sequence | PBM E-score |
| --- | --- |
| AAGCCATC | 0.0419 |
| ATGCTGAA | -0.126 |
| CAGCCGAC | 0.311 |
| ATTAGTTA | 0.0511 |
| CACGTCCA | -0.142 |
| AGACCTGA | 0.00421 |
| TCCTTAGA | -0.307 |
| GGGCTAAC | -0.125 |
| AACTCATC | 0.0713 |
| CGGCGTGC | 0.0558 |
| AGAATCAA | -0.0187 |
| AACGGAAG | 0.284 |
| CCGTTCAA | 0.113 |
| GTAATCCA | -0.162 |
| CACGCTAG | -0.0758 |
| ACTCCATG | -0.0565 |
| CCGAAACC | 0.395 |
| AACACTGA | -0.073 |
| GCAGAGCC | 0.0507 |
| CTATTGCC | -0.0143 |
| ATTTAGCA | -0.0745 |
| TAGCAGAA | -0.148 |
| AGGATGAG | -0.0883 |
| TTCGAAAA | -0.157 |
| AGGGAGAC | -0.207 |

| Sequence | PBM E-score |
| --- | --- |
| CCTCTGGC | 0.0427 |
| ACGTGGAA | -0.154 |
| AAGTAGTA | -0.201 |
| ATACTCCC | 0.2 |
| CGCGAATC | -0.0602 |
| ACCAAGAA | -0.0301 |
| GTGCTACA | -0.432 |
| GGATCCCC | 0.253 |
| CATCTGCA | -0.144 |
| CTTGGCCC | -0.174 |
| AGCTTGTG | -0.247 |
| GTTGCCCA | -0.0723 |
| CGGACACG | 0.253 |
| AACTGTAG | -0.305 |
| AAGTATCC | 0.226 |
| CGGGGGTC | 0.0962 |
| AAATACAA | 0.0523 |
| GCCTGTAC | 0.0775 |
| CACTTCGC | -0.162 |
| CATGAAAA | -0.0912 |
| GGGAACCC | 0.0924 |
| CCGGCTCG | 0.348 |
| CGACGAGA | 0.0326 |
| CAATGAAG | -0.331 |
| AATAGTAT | 0.0933 |

| Sequence | PBM E-score |
| --- | --- |
| CTATGTTC | -0.017 |
| AACAGAGA | -0.0643 |
| ATGGGGCC | -0.209 |
| CCATCAAC | -0.251 |
| AGACCACT | -0.228 |
| AATAAGTC | -0.262 |
| GCCAGCGA | -0.13 |
| AACTTATT | 0.113 |
| AACGGTTA | 0.104 |
| ACACTAGC | -0.187 |
| GAGTGGGC | 0.0172 |
| AATTCTGC | -0.0158 |
| AAGCGGCG | 0.0131 |
| TACATCAA | -0.14 |
| CCGACTCG | 0.295 |
| AGATTTGG | -0.196 |
| CACAACCA | 0.0206 |
| CGCTCGCC | -0.0544 |
| AGTCTCCA | -0.294 |
| CTCCGCGA | 0.0734 |
| GGTGTGTA | -0.16 |
| GCTCAAGA | -0.222 |
